Patent EP2764866A1, “Inhibitors of nedd8-activating enzyme” (IP Gesellschaft für Management mbH, priority 2013, dated 2014)

Tests used:
[1] = Pharmacokinetics of Compound [1] in Phase I and II studies; conditions: 500 mg/day on a 5 days on/2 days off dosing schedule
[2] = test system: 3T3-CD74-ROS tumor xenograft; conditions: for tumor growth inhibition / Tumor regression: oral, 10 days

Row | inter-subject coefficient of variation (CV%) for AUC [1] | SMILES | tumor growth inhibition ([2]; 20 mg/kg/day group (10 mg/kg BID)) [%] | tumor growth inhibition ([2]; 40 mg/kg/day group (20 mg/kg BID)) [%] | Tumor regression ([2]; 80 mg/kg/day group (40 mg/kg BID)) [%] | Tumor regression ([2]; 160 mg/kg/day group (80 mg/kg BID)) [%] | ROS phosphorylation in the 3T3-CD74-ROS tumors ([2]; 7 hours post last oral administration, all treatment groups, ELISA)
1 | around 50% | CN1CCN(c2ccc3nc(-c4c(N)c5c(F)cccc5[nH]c4=O)[nH]c3c2)CC1 [Compound [1]] | – | – | – | – | –
2 | – | C[C@@H](Oc1cc(-c2cnn(C3CCNCC3)c2)cnc1N)c1c(Cl)ccc(F)c1Cl [Crizotinib, 3-[(R)-1-(2,6-dichloro-3-fluoro-phenyl)-ethoxy]-5-(1-piperidin-4-yl-1-H -pyrazol-4-yl)-pyridin-2-ylamine] | 54 | 78 | 61 | 94 | significant inhibition

Read-outs that look alike come from different tables or passages of the source.
